Source: PubChem BioAssay AID1963576 (National Center for Advancing Translational Sciences (NCATS), 2024)
The whole screen tested about 46,000 compounds, of which about 60 (0.1%) were called active. Not shown: some 3% with an inconclusive outcome. Calls follow the shape of the dose curve; as a rule, active = well fitted inhibition curve with a large enough effect; inconclusive = small, poorly fitted or top-dose-only effect; inactive = no such curve, though single readings can be large or run the other way. The list shows a part of the results.

Assay: Primary qHTS assay for Inhibitors of ovarian cancer metastasis using an organotypic tumor microenvironment (TME) model. Also: nearly all actives have a fitted effect of over 65% in size.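 As to activity change, negative = inhibition: plate controls were DMSO wells for no effect and tomatine positive control wells for full effect.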
Details: SKOV3ip1-GFP adhesion/invasion on 3D omental model, fluorescence; series mostly up to 45.8 µM; activity change, negative = inhibition: at the top concentration
Summary of the method: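 Adhesion/invasion was scored as fixed GFP-labeled SKOV3ip1 cell counts (488/509 nm), normalized to DMSO and tomatine controls. Cancer cells in serum-free medium, with four compound doses (0.36-46 umol/L), sat 2 hr at RT then 16 hr at 37 C on a 48 hr fibroblast/mesothelial/ECM culture.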

Row | SMILES | activity change, negative = inhibition | outcome
1 | COc1ccc(OC)c(CNS(=O)(=O)c2ccc3c(c2)CCCN3C(C)=O)c1 | inactive: 2.3% | –
2 | COc1ccccc1NC(=O)N(Cc1nnc2n1CCCCC2)c1ccc(F)cc1 | inactive: 7.41% | –
3 | COc1ccc(NC(=O)Cn2nnc(C(=O)NCCc3ccccc3)c2N)cc1 | inactive: -0.79% | –
4 | CC(=O)c1cccc(NC(=O)C(C)n2c(=O)cc(C)c3c(C)nn(-c4ccccc4)c32)c1 (configuration not stated) | inactive: 5.26% | –
5 | CCOC(=O)c1ccc(CN(Cc2ccc(F)cc2)S(=O)(=O)c2ccc(F)c(C(=O)Nc3ccc(Cl)cc3F)c2)cc1 | – | inactive
6 | O=S(=O)(Nc1ccc(Br)cc1F)c1ccc2nc(-c3ccccc3)[nH]c2c1 | – | inactive
7 | COc1cccc(N2CCN(C(=O)c3cccc(-n4c(C)nc5cccnc54)c3)CC2)c1 | inactive: 10.2% | –
8 | COc1ccc(Br)c(C(=O)Nc2cc3c(cc2N2CCOCC2)n(C)c(=O)n3C)c1 | – | inactive
9 | CCOc1ccc(NC(=O)c2c(NCc3cccnc3)sc3c2CCCC3)cc1 | inactive: 0.887% | –
10 | CC1CCc2c(sc3nc(-c4cc5cc(Br)ccc5oc4=O)[nH]c(=O)c23)C1 (configuration not stated) | inactive: -4.82% | –
11 | O=C(CCS(=O)(=O)c1cccc2nonc12)Nc1c(F)cccc1F | inactive: -7.84% | –
12 | Cc1cc(C)cc(NC(=O)N2CCC3(CC2)Oc2ccccc2C(=O)N3Cc2ccccc2F)c1 | inactive: 6% | –
13 | COc1ccc(-c2nnc(SCC(=O)Nc3cccc(C(F)(F)F)c3)nc2-c2ccc(OC)cc2)cc1 | inactive: -1.07% | –
14 | C=Cc1ccc(Cn2c(C(=O)O)c(CNC3CCCCC3)c3ccc(C)cc32)cc1 | inactive: -1.76% | –
15 | COc1ccc(CCn2c(=O)c3cccnc3n(CC(=O)Nc3ccc(C)c(F)c3)c2=O)cc1OC | inactive: 0.319% | –
16 | CCc1nn2c(=O)cc(COc3ccc(/C=C(\C#N)C(=O)Nc4ccc(F)cc4)cc3OC)nc2s1 | inactive: 28.6% | –
17 | CC(C)COc1ccc(C(=O)Nc2cc3nn(-c4ccccc4)nc3cc2Cl)cc1 | inactive: 1.9% | –
18 | CCOc1ccc(OCC)c(NC(=O)C2CCN(S(=O)(=O)c3c(C)noc3/C=C/c3ccccc3F)CC2)c1 | inactive: 5.77% | –
19 | O=C(c1ccc2c(c1)OCCO2)N(Cc1cccnc1)c1nc2c(Cl)cccc2s1 | – | inactive
20 | COc1cccc(Cn2c(CNS(=O)(=O)c3ccc(F)c(Cl)c3)nc3cccnc32)c1 | inactive: 5.58% | –
21 | O=C(COc1ccccc1)NCCc1csc(-c2ccc(Cl)cc2)n1 | inactive: 8.88% | –
22 | CCOC(=O)c1[nH]c2c(c1Cc1ccccc1C)C(=O)CC(c1cc(OC)ccc1OC)C2 (configuration not stated) | inactive: 12.8% | –
23 | CN1C(=O)Cc2cc(S(=O)(=O)N3CCN(c4ccc(Cl)cc4)CC3)ccc21 | inactive: 0.543% | –
24 | Cc1ccccc1-c1nn2c(=O)cc(CN3CCN(C(=O)/C=C/c4ccccc4)CC3)nc2s1 | – | inactive

Row | SMILES | activity change, negative = inhibition | outcome
25 | CCc1ccc(NC(=O)Cn2c(=O)n(CCC(=O)N3CCc4ccccc4C3)c(=O)c3ccccc32)cc1 | – | inactive
26 | CCn1c2ccccc2c2nnc(SCC(=O)Nc3ccccc3OC)nc21 | – | inactive
27 | CCOC(=O)c1ccc(NC(=O)C2CCN(S(=O)(=O)c3ccc4c(c3)CCCC(=O)N4)CC2)cc1 | inactive: 12.4% | –
28 | CCOc1ccccc1CNC(=O)c1cc(-c2ccc(Cl)s2)nc2ccccc12 | inactive: 2.48% | –
29 | O=S(=O)(NCC(c1cccs1)S(=O)(=O)c1ccccc1)c1ccc(F)cc1 (configuration not stated) | inactive: -13.1% | –
30 | Cc1c(C2=CCN(S(=O)(=O)c3ccc(Cl)cc3)CC2)c2ccccc2n1CC(=O)N1CCCC1 | inactive: 16.9% | –
31 | Cc1cc2c(n1-c1ccc(C(=O)NCCc3ccc(Cl)cc3)cc1)CCC(C)C2 (configuration not stated) | inactive: 4.17% | –
32 | COc1ccc(-c2cc(C(F)(F)F)n3nc(C(=O)OC(C)C)cc3n2)cc1 | – | inactive
33 | CCOC(=O)c1cccc(NC(=O)CC2C(=O)N(c3ccccc3)C(=O)N2Cc2ccco2)c1 (configuration not stated) | inactive: -9.4% | –
34 | CCc1ccc2oc(C(=O)Nc3nc(-c4ccc(F)cc4)ns3)c(C)c2c1 | inactive: -3.15% | –
35 | CNC(=O)c1ccc(-c2nc(CN3CCc4ccccc43)c(C)o2)cc1 | inactive: -13.2% | –
36 | CC(=O)Nc1ccc(Nc2nc3ccc(Cl)cc3n3cnnc23)cc1 | inactive: -3.76% | –
37 | Cc1c(Cl)cccc1NC(=O)C(C)n1nc(C)c2c(C)n(-c3ccccc3)nc2c1=O (configuration not stated) | inactive: 1.51% | –
38 | Cc1cccc(OCC(=O)Nc2ccc(OCc3cc(=O)n4cc(C)ccc4n3)cc2)c1 | inactive: 9.25% | –
39 | CCC1CCCCN1C(=O)CSc1n[nH]c(-c2ccccc2)n1 (configuration not stated) | inactive: -12.4% | –
40 | COc1ccc(N(Cc2nnc3n2CCCCC3)C(=O)Nc2ccc(Cl)cc2)cc1Cl | inactive: 3.94% | –
41 | O=C(CC1(O)C(=O)N(CCc2ccccc2)c2ccc(Br)cc21)c1ccccc1 (configuration not stated) | inactive: -1.19% | –
42 | COc1ccc(OC)c(NC(=O)c2ccc3nc(C(C)C)oc3c2)c1 | inactive: 12.6% | –
43 | Cc1cccc(N2CCN(S(=O)(=O)c3nnc(NC(=O)c4ccc(Cl)cc4)s3)CC2)c1 | inactive: 4.22% | –
44 | CC(=O)c1cccc(NC(=O)Cn2c(-c3cncs3)nc3ccccc32)c1 | inactive: 5.16% | –
45 | COc1ccccc1CNC(=O)c1cc(S(=O)(=O)N2CCCCCC2)cn1C | – | inactive
46 | Fc1ccccc1-n1ncc2c1ncn1nc(COc3ccc(Cl)cc3)nc21 | inactive: -0.662% | –
47 | Cc1cccc(NC(=O)CSc2cn(CC(=O)N3CCC(C)CC3)c3ccccc23)c1C | – | inactive
